Data as given in article PMC4924684.
Results are given in words; binding and its absence hold for the method and conditions named. In cells and extracts the contact can be indirect. Some entries that bind do so weakly or less than the wild type. Sequences can lack the tags named with a protein.

Chains of the proteins cited; added tags and fusions are not shown. Residues count along the entry.
UniProt P21127, residues 357-795: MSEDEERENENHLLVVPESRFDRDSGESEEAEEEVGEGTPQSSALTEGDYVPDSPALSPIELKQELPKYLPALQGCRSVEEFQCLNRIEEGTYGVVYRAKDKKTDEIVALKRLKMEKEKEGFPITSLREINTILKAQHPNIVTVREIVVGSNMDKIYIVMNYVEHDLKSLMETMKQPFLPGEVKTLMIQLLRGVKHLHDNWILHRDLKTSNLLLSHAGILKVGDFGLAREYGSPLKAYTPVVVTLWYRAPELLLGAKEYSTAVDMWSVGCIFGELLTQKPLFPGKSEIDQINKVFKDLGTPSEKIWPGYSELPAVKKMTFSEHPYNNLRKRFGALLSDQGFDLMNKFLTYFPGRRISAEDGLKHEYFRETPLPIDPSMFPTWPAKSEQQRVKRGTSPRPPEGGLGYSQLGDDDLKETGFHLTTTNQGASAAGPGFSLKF

How the values were obtained:
GADD45γ-Flag [1] = target: T1, GADD45γ-Flag (UniProt O95257); assay: co-IP; in vitro translated proteins mixed in the presence of anti-Flag agarose or anti-myc agarose beads; Western blot
T1 sequence: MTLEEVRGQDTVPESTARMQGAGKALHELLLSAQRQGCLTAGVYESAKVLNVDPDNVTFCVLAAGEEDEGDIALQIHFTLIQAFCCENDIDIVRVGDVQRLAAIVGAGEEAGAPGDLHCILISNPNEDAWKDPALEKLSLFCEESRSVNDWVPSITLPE

GADD45γ-Flag [2] = target: T1, GADD45γ-Flag; assay: co-IP; DU145 cells transfected; protein extracts immunoprecipitated with anti-FLAG mAb; Western blot
SPDEF-Flag = target: T2, SPDEF-Flag (UniProt O95238); assay: as above
T2 sequence: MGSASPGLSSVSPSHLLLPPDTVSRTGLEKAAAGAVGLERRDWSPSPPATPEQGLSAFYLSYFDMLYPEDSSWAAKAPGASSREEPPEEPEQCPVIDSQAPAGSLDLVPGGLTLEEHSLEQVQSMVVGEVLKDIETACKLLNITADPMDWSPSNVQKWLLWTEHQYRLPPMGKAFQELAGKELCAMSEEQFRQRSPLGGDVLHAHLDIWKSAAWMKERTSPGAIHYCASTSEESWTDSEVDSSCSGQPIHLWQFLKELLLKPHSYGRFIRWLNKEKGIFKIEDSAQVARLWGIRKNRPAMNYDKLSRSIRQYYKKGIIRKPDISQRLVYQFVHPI

SPDEF-GST = target: T3, SPDEF-GST (UniProt O95238); assay: pull-down; GST fusion protein from BL21 lysate on glutathione-Sepharose beads, washed, incubated with 5 μl of in vitro translated protein in protein binding buffer for 16 hours at 4°C; Western blot; only the target purified
T3 sequence: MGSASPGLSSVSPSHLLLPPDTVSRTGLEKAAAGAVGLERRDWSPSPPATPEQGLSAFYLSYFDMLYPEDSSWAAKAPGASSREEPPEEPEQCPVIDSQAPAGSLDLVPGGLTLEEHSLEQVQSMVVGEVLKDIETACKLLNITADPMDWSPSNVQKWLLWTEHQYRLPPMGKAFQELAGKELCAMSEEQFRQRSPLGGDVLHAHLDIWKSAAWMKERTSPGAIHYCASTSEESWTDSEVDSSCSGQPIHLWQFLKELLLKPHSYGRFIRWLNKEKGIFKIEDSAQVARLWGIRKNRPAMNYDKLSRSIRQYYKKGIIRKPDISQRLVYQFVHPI

GADD45β-Flag = target: T4, GADD45β-Flag (UniProt O75293); assay: co-IP; HEK 293T cells transfected; protein extracts immunoprecipitated with anti-FLAG mAb; Western blot with anti-HA
T4 sequence: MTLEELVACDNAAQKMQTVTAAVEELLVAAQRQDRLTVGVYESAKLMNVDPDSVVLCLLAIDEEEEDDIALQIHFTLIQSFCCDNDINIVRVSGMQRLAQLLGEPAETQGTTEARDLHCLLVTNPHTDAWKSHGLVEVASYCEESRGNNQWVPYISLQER

GADD45γ-Flag [3] = target: T1, GADD45γ-Flag; assay: as above
GADD45α-Flag = target: T5, GADD45α-Flag (UniProt P24522); assay: as above
T5 sequence: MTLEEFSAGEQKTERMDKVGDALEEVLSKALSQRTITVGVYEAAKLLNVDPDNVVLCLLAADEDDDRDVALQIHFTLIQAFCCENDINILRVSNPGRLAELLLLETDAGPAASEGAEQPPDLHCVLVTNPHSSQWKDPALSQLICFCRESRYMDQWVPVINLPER

SPDEF-myc = target: T6, SPDEF-myc (UniProt O95238); assay: co-IP; in vitro translated proteins mixed in the presence of anti-Flag agarose or anti-myc agarose beads; Western blot
T6 sequence: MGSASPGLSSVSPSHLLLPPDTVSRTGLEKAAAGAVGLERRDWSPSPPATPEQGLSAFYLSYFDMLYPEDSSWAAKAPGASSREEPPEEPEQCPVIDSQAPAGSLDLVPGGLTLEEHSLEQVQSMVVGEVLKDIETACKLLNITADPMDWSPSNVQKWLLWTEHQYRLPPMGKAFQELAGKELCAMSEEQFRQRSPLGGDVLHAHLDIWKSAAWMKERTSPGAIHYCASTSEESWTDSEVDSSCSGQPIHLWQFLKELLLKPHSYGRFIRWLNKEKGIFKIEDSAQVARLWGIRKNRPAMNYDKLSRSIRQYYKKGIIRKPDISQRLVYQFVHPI

For “CDK11p58-HA (from UniProt P21127-12 1-439)”, the binding (GADD45γ-Flag [1]) was “binds”, the binding (GADD45γ-Flag [2]) was “binds” and the binding (SPDEF-Flag) was “binds”. The binding (SPDEF-GST) was “binds”, the binding (GADD45β-Flag) was “binds” and the binding (GADD45γ-Flag [3]) was “binds”. The binding (GADD45α-Flag) was “binds”.

B1: GADD45α-Flag (protein, UniProt P24522 1-165)
chain: MTLEEFSAGEQKTERMDKVGDALEEVLSKALSQRTITVGVYEAAKLLNVDPDNVVLCLLAADEDDDRDVALQIHFTLIQAFCCENDINILRVSNPGRLAELLLLETDAGPAASEGAEQPPDLHCVLVTNPHSSQWKDPALSQLICFCRESRYMDQWVPVINLPER
With B1 the binding (SPDEF-myc) was “no binding”.
